Laboratory results from the supplement of paper PMC4723716.
In all, about 3,600 compounds were measured (“viability index relative to DMSO control”: median about 0.81, lowest 2% from about 0.13 on). This is one part of the list.

test system: Plasmodium falciparum NF54 stage V gametocytes; experiment: viability index relative to DMSO control (fraction); higher = less gametocyte killing; conditions: 1.25 µM, incubation time: 72 h
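Note: 384-well serum-free SaLSSA: MitoTracker Red CMXRos staining with saponin lysis, high-content imaging, treated-well particle count divided by plate-mean count of DMSO wells.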

SMILES | viability index
CCOC(=O)C1=C(C)NC2=C(C(=O)CC(c3ccc(OC)c(OC)c3)C2)C1c1ccc(Cl)c(Cl)c1 (stereo unspecified) | 0.71
Cc1cc(NCCCN(C)C)c2ccccc2n1 | 0.888
CCOC(=O)c1cnc2c3c(ccc2c1O)CCCC3 | 0.853
COc1ccc(C=C2SC(=Nc3ccccc3OC)NC2=O)cc1 | 0.677
CN1CCC(CCNCc2ccc(OCC(O)CN(C)Cc3ccccc3)cc2)CC1 (stereo unspecified) | 0.856
CCC(C(=O)N1CCN(Cc2ccccc2)CC1)c1ccccc1 (stereo unspecified) | 0.725
COc1ccc(C2CC(=O)C3=C(C2)NC(C)=C(C(=O)OC(C)C)C3c2ccccc2F)cc1OC (stereo unspecified) | 0.448
COc1ccc(C2CC(=O)C3=C(C2)NC(C)=C(C(=O)OC(C)C)C3c2ccccc2Br)cc1OC (stereo unspecified) | 0.363
C[n+]1cccc(C=C2c3ccccc3-c3ncccc32)c1 | 0.663
COc1cc(C=CC(=O)Nc2ccc3nc(N4CCN(c5ncccn5)CC4)cc(C)c3c2)cc(OC)c1OC | 0.863
Cc1ccc(-c2nc(CS(=O)(=O)CC(=O)NC3CCC(C)CC3)c(C)o2)cc1 (stereo unspecified) | 0.968
O=C(Nc1cc(C(F)(F)F)cc(C(F)(F)F)c1)Nc1ccc(Cl)c(Cl)c1 | 0.892
CC12C(=O)N(c3cccc(C(=O)O)c3)C(=O)C1C1c3ccccc3C2c2ccccc21 (stereo unspecified) | 1.15
Nc1ccnc2cc(Cl)ccc12 | 1.06
O=C(Nc1ccc2oc(-c3ccccc3F)nc2c1)c1ccc([N+](=O)[O-])o1 | 0.128
CCOc1cc(-c2nnc3[nH]c(=O)n(C)c(=O)c3n2)ccc1OC(C)C | 0.811
CC(c1nc2ccc(Cl)cc2c(=O)n1C)N1CCN(S(=O)(=O)c2cccc3ccccc23)CC1 (stereo unspecified) | 0.929
Fc1ccc(CCNc2ncnc3c2[nH]c2ccccc23)cc1 | 0.605
COc1ccc(CN2CC(=O)N(c3ccc(Cl)cc3)C2=S)cc1OC | 1.28
Cc1ccccc1NC(=O)N1CCN(C(=O)c2nc(-c3ccccc3)nc(C)c2C(=O)OC(C)C)CC1C (stereo unspecified) | 0.476
O=C(COc1cccc2ccccc12)NC1CCS(=O)(=O)C1 (stereo unspecified) | 1.06
COc1cccc(C(=O)NC(c2ccc(Cl)cc2)c2cc(Cl)c3cccnc3c2O)c1 (stereo unspecified) | 0.523
CSc1ccc(C=CC(=O)NC(=O)c2ccccc2O)cc1 | 0.661

SMILES | viability index
CCOc1ccc(C2=NC3(CCN(C(C)C)CC3)NC(c3cc(Cl)ccc3O)C2)cc1 (stereo unspecified) | 0.892
COc1ccc(C=C2SC(=Nc3ccccc3)NC2=O)c(OC)c1 | 0.815
Clc1cccc(CCNC2CCN(CCc3ccccc3)CC2)c1 | 1.16
COC(=O)C1=C(C)NC2=C(C(=O)CC(c3ccccc3)C2)C1c1ccc(Cl)cc1 (stereo unspecified) | 0.709
COc1ccc(C(=O)C[N+]2=C(C)c3ccc(C)n3CC2)cc1 | 0.649
Cc1ccc(C)c(-c2csc(Nc3ccc(C)c(C)c3)n2)c1 | 0.568
CC1CN(C(=O)CCCSc2nnc(Cc3ccccc3)n2-c2ccc(Cl)c(Cl)c2)CC(C)O1 (stereo unspecified) | 0.548
Cc1nn(CC(O)Cn2c3ccc(Cl)cc3c3cc(Cl)ccc32)c(C)c1Br (stereo unspecified) | 0.351
CN1CCC(NCCc2ccc(Cl)cc2)CC1 | 0.853
CSc1nnc(NC(=O)C2CC2)s1 | 0.736
O=C(CCc1ccccc1)c1ccccc1OCC(O)CN1CCCCC1 (stereo unspecified) | 0.6
CCCCN1C(=O)/C(=C2/Sc3ccccc3N2C)SC1=Nc1cc(C)ccc1C | 1.04
FC(F)(F)c1cccc(-c2nc3c(s2)CN(C2CCCC2)CC3)c1 | 0.577
O=C(C1CC1)N1CCN=C1SCc1ccc(C(F)(F)F)cc1 | 0.545
O=S(=O)(c1ccc(Cl)cc1)N1CCN(C(=S)NCc2ccco2)CC1 | 0.959
O=c1oc(-c2ccccc2F)nc2sc3c(c12)CCCC3 | 0.823
Cc1cc(NS(=O)(=O)c2ccc(N=Cc3ccc(C#N)cc3)cc2)no1 | 0.817
CC1CC(C)CN(S(=O)(=O)c2ccc(C(=O)Nc3ccc(-c4nc5ccccc5o4)cc3)cc2)C1 (stereo unspecified) | 0.842
CCOC(=O)c1c(NC(=O)COc2ccccc2[N+](=O)[O-])sc(C(C)=O)c1C | 0.76
CC1N=C2c3ccccc3N=C(SCc3ccc(F)cc3)N2C1=O (stereo unspecified) | 1.04
CCN(CC)CCNC(=O)c1cc(-c2cc3ccccc3s2)cc(-n2cnnn2)c1 | 0.952
Cc1ccc2c(Cl)c(C(=O)N3CC(C)OC(C)C3)sc2c1 (stereo unspecified) | 0.869
COc1cc(C2c3[nH]c4ccccc4c3C[C@H]3C(=O)N(CCc4ccccc4)CC(=O)N23)cc(OC)c1OC (stereo partly specified) | 0.767

SMILES | viability index
COc1cc2c(cc1OC)C(=NN=C1NC(C)(C)Cc3ccccc31)NC(C)(C)C2 | 1
CCOC(=O)C1=CN(c2cc(C)ccc2C)C=C(C(=O)OCC)C1c1ccccc1OCC | 0.698
CCN(Cc1ccccc1)c1ncnc2ccc(Br)cc12 | 1.06
COc1cc(C=C(C#N)c2nc3ccccc3[nH]2)ccc1OCc1ccc(C)cc1 | 0.615
O=C(Nc1ccccc1Cl)NC1(C(=O)NCC2CCCO2)CCCCC1 (stereo unspecified) | 0.891
COC(=O)c1sc2nc(CN3CCCC(C)C3)ccc2c1NC(=O)c1ccc(C)s1 (stereo unspecified) | 0.875
O=[N+]([O-])c1cccc(Cl)c1N1CCN(S(=O)(=O)Cc2ccccc2)CC1 | 1
Cc1cc(N2CCN(C3CCCCC3)CC2)n2c(nc3ccccc32)c1C#N | 0.94
CNC(=O)NNC(=O)c1cccnc1 | 1.35
COc1ccc(C=NNc2nc3cc(Cl)ccc3[nH]2)cc1OC | 0.735
CCC1CCCCN1C(=O)C1CC(=O)N(c2ccc(OC)cc2)C1c1ccc(OC)cc1 (stereo unspecified) | 0.798
CC[n+]1c(C=C2Sc3oc4ccccc4c3N2C)ccc2cc(C)ccc21 | 0.473
Cc1nc(N2CCCCC2)c2c(C)c(C(=O)N3CCN(c4cccc(Cl)c4)CC3)sc2n1 | 0.73
CC(NC(=O)c1cnn2c(C(F)(F)F)cc(-c3ccc(Br)cc3)nc12)c1ccccc1 (stereo unspecified) | 1.14
CCOC(=O)C1=C(c2ccccc2)N=c2sc(=Cc3cc(OC)c(OC)c(OC)c3)c(=O)n2C1c1c(OC)ccc2ccccc12 (stereo unspecified) | 0.623
CCOC(=O)c1ccc(OCC2c3cc(OC)c(OC)cc3CCN2C(=O)c2ccc([N+](=O)[O-])cc2)cc1 (stereo unspecified) | 0.921
CN(C)c1ccc(/C=C2\N=C(c3ccccc3F)OC2=O)cc1 | 0.896
COCCNC(=S)N1CCN(S(=O)(=O)c2ccc([N+](=O)[O-])cc2)CC1 | 0.327
CCN(CC)CCNc1ccnc2cc3ccccc3cc12 | 0.435
CCN(CC)C(=O)N1CCN(c2ccc(Nc3ccnc4cc5ccccc5cc34)cc2)CC1 | 0.801
O=C(NNc1ccccc1F)C1CCC1 | 1.46
O=C(CSc1nc2ccccc2c(=O)n1CCCN1CCOCC1)Nc1cccc(S(=O)(=O)N2CCCCCC2)c1 | 0.969
Cc1cc(C)n(-c2ccc(NC(=O)C3CCN(Cc4ccncc4)CC3)cc2)n1 | 0.885

SMILES | viability index
COc1ccc(NC(C)=C2C(=O)c3ccccc3C2=O)c(OC)c1 | 0.99
CC1(C)CC(=O)C2=C(C1)NC(=O)CC2c1ccc(C(C)(C)C)cc1 (stereo unspecified) | 0.92
Cc1cc(S(=O)(=O)NC(Cc2ccc([N+](=O)[O-])cc2)C(=O)O)c(Cl)cc1Cl (stereo unspecified) | 0.983
CCc1ccc(CN2CCC(O)(c3ccc4oc(C(=O)Nc5ccc6c(c5)OCO6)cc4c3)CC2)cc1 | 1.38
COC(=O)C1=C(C)NC2=C(C(=O)CC(c3ccccc3)C2)C1c1cc(C)sc1SC (stereo unspecified) | 0.927
Cc1cc(C)cc(-n2c(C)cc(C=C3SC(=Nc4ccc(Cl)cc4)NC3=O)c2C)c1 | 0.491
Cc1cccc(NS(=O)(=O)c2ccc3[nH]c(=O)ccc3c2)c1C | 1.04
Cc1nc2ccc(Br)cc2c(O)c1CC(C)C | 0.659
COc1ccc(-c2cc(-c3ccc(C)cc3)[nH]n2)c(O)c1 | 0.845
CCN(CC)c1ccc(C=C(C#N)c2nc3ccccc3[nH]2)o1 | 0.609
C1=C(c2ccccc2)CCN(c2ncnc3c2nc2n3CCCCC2)C1 | 0.916
CCOC(=O)N1CCN(c2ccc(C(F)(F)F)cn2)CC1 | 0.768
CCOC(=O)C1CCN(C(=O)c2cc(C(C)(C)C)nn2Cc2ccc(Cl)cc2Cl)CC1 | 0.788
CCOC(=O)c1c(CNCCN(CC)CC)n(C)c2cc(Br)c(OC(C)=O)cc12 | 0.606
COc1cc(C(Nc2ccccn2)c2ccc3cccnc3c2O)cc(Br)c1OC (stereo unspecified) | 0.907
CN(C)CCNc1c2c(nc3ccccc13)CCC2 | 0.953
CC(=O)c1ccc(OCCSc2nc3c(N)ncnc3[nH]2)cc1 | 1.51
O=C(NN=Cc1ccc(Br)cc1)c1ccco1 | 0.744
COc1cc(-c2cc(C)c3c(OC)ccc(OC)c3n2)cc2c1OCCN(C(=O)CCn1nc(C)cc1C)C2 | 0.798
C[n+]1c(C=CNc2ccccc2)n(-c2ccccc2)c2ccc(Cl)cc21 | 0.667
O=C1CSC(=NN=Cc2cccnc2)N1c1ccccc1 | 0.962
CCOC(=O)c1c(S(=O)(=O)Nc2ccc(C(C)(C)C)cc2)c(-c2ccccc2)n(-c2ccccc2)c1C | 0.664
